# About 230 (0.21%) of roughly 110,000 compounds showed an effect of 50% or more. The list shows a part of the results.
# Molecular target: DPAP1 (Plasmodium falciparum, UniProt Q8IIJ9)
# Test: primary screen, percent inhibition; read by cleavage of a fluorogenic dipeptide substrate; higher = more effect of the substance
# Design: species or system P. falciparum D10 trophozoite lysates; single well
# 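Note: 30 min substrate incubation versus DMSO and 10 µM JCP410 controls.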
# DPAP1, sequence (Q8IIJ9 whole entry, looked up): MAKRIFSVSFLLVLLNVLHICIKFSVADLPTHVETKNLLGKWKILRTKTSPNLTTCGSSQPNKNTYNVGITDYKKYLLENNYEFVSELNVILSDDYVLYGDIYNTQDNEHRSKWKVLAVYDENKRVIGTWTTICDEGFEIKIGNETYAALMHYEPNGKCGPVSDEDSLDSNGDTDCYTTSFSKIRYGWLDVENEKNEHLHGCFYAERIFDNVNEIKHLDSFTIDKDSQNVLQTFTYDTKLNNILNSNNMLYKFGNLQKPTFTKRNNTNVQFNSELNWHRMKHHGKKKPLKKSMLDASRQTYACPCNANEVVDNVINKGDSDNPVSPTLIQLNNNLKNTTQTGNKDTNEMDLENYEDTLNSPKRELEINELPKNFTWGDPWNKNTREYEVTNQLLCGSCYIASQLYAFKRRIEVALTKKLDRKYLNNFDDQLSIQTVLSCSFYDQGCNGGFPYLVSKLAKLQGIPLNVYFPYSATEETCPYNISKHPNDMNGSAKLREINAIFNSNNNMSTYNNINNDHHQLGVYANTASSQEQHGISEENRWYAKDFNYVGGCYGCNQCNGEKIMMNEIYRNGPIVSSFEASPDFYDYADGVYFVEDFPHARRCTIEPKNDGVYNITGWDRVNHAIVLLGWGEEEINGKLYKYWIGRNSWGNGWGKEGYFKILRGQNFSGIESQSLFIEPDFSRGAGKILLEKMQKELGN
row,SMILES,% Inhibition @ 10 uM
1,CC(NC(=O)c1ccc(CNS(=O)(=O)c2ccc(Br)cc2)cc1)c1ccccc1 (centres unmarked),-3.58%
2,CCc1ccc(-c2nc(SCC(=O)NCCCOC)c(-c3ccc(F)cc3)[nH]2)cc1,3.28%
3,COc1ccc(C2=N/C(=C\C=C\c3ccccc3)C(=O)O2)c(Cl)c1,0.775%
4,COc1ccc(-c2nc3c(=O)n(C)c(=O)n(C)c3[nH]2)c(OC)c1,-3.33%
5,Cc1ccc(Cn2c(C(=O)O)c(CNCc3ccc4c(c3)OCO4)c3ccc(C)cc32)cc1,8.82%
6,CSc1nc(SC)c2c3c(oc2n1)COC(C)(C)C3,-2.63%
7,O=C(c1cccnc1)N1CCc2ccccc2C1,-1.6%
8,O=C(Nc1cccc(O)c1)C(=O)C1C(=O)Nc2ccccc2S1=O (centres unmarked),-1.04%
9,CCCCNC(=O)c1sc2ncn(CC(=O)N3CC(C)CC(C)C3)c(=O)c2c1C (centres unmarked),-2.17%
10,COc1cc(C2c3c(oc4ccccc4c3=O)C(=O)N2Cc2ccc(F)cc2)ccc1O (centres unmarked),-3.13%
11,CCc1ccc(C2=NN(CCC(=O)NCc3cccnc3)C(=O)CC2)cc1,-2.94%
12,CC1=C(C(=O)OCC(F)(F)F)C(c2ccccc2Cl)NC(=O)N1 (centres unmarked),5.92%
13,O=C(CSCC(=O)N(C1CCCCC1)C1CCCCC1)Nc1ccccc1,-5.31%
14,O=C(C(F)F)N(Cc1ccccc1)Cc1ccccc1,-3.52%
15,CCOC(=O)c1cc2cc(Br)ccc2oc1=O,-4.31%
16,CC(=O)c1cc(-c2ccc(F)cc2)n(CC(=O)N2CCC(C)CC2)c1C,-1.88%
17,CC(C)NC(=S)N1CCN(c2ccc(N3CCOCC3)nn2)CC1,-2.88%
18,COc1ccc(CCC2=NCCn3cccc32)cc1OC,-0.999%
19,COCCOC(=O)N/C=C\c1nc(O)c2ccccc2n1,-4.65%
20,Cc1cc(OC(C)C(=O)Nc2ccc(N(C)C)cc2)ccc1Cl (centres unmarked),-7.98%
21,O=C(c1ccccc1)c1conc1C(=O)c1ccc(Br)cc1,4.52%
22,CC(=O)C1=C(C)N=C2C(=C(O)c3ccccc32)C1c1cccc(Br)c1 (centres unmarked),-0.105%
23,O=C(O)c1ccc2nc3c4ccccc4c4ccccc4c3nc2c1,13.3%
24,Cc1ccc(-n2nc3c(=O)n(CCCC(=O)NCc4ccc5c(c4)OCO5)nc(C)c3c2C)cc1,-7.94%
25,CCC(C)NC(=O)C(C)n1sc2ccccc2c1=O (centres unmarked),-0.385%
26,CN1CCN(C(=O)/C=C\C(=O)O)CC1,-0.127%

row,SMILES,% Inhibition @ 10 uM
1,COC12C=C(C)C(C(C)=C1)c1c(F)c(F)c(F)c(F)c12,1.4%
2,CCC(C)NC(=O)c1ccc(-n2cnc3cccnc32)cc1 (centres unmarked),-0.571%
3,COCCNC(=O)c1ccc(CSc2nc3cccnc3n2Cc2ccc(OC)cc2)cc1,2.72%
4,COC1CCCCC1NCCc1cccc(Cl)c1 (centres unmarked),3.44%
5,N#CCCS(=O)(=O)c1ccc(Br)cc1,1.63%
6,O=C(Nc1ccccc1)c1cc2nc(C(F)F)cc(C(F)F)n2n1,2.4%
7,O=C(Nc1cccc2ccccc12)c1cccs1,-4.67%
8,CC(C)(C)c1[nH]nc2c1C(c1cccc(O)c1)C(C#N)=C(N)O2 (centres unmarked),-0.366%
9,Cc1cc(C)n(CCc2ccccc2)n1,-4.06%
10,Cc1ccc(NS(=O)(=O)c2ccc(Br)cc2C)c(C)c1,-6.07%
11,COC(=O)/C(C#N)=C/c1c(Oc2ccc(C)cc2)nc2ccccn2c1=O,-6.23%
12,CCCOC(C(=O)OC(C)CN(C)C)(c1ccccc1)c1ccccc1 (centres unmarked),-8.3%
13,CCn1c(C(=O)NCCc2ccc(OC)cc2OC)cc2sc(Cl)cc21,-6.68%
14,O=C(Nc1cccnc1)C1COc2ccccc2O1 (centres unmarked),-3.49%
15,COc1ccc(CC(=O)NCC2OCCc3ccccc32)cc1OC (centres unmarked),-5.28%
16,Cc1ccc(S(=O)(=O)Nc2ccc3c(c2)ncn3-c2ccccc2)cc1,1.03%
17,COC(=O)C(NC(=O)c1ccc(Cl)cc1Cl)c1ccccc1 (centres unmarked),2.13%
18,O=C(CCCCCNc1nc(S)nc2ccccc12)NC1CCN(Cc2ccccc2)CC1,9.34%
19,CN(c1ccc(C(=O)NCC2CCCO2)cc1)S(C)(=O)=O (centres unmarked),-0.469%
20,O=C(c1ccc2c(c1)nc(S)n1c3ccccc3nc21)N1CCN(c2ncccn2)CC1,7.11%
21,Cc1ccc(C2=NS(=O)(=O)N(C)C(C(=O)N3CCC(C)C4CCCCC43)=C2)cc1 (centres unmarked),-2.84%
22,Nc1ncnc2c1C(c1ccccc1)c1c(ccc3ccccc13)O2 (centres unmarked),1.31%
23,Cn1c(=O)c2c(nc(Cl)n2Cc2ccc(Cl)cc2Cl)n(C)c1=O,-4.59%
24,C=Cc1ccc(Cn2nc(-c3ccccc3)ccc2=O)cc1,-2.71%
25,CS[C@H]1C[C@H]2OC(c3ccccc3)=N[C@H]2C(=O)N1Cc1ccccc1,0.843%
26,O=C1OC(c2cc(Cl)ccc2Cl)=N/C1=C\c1cccnc1,2.72%

row,SMILES,% Inhibition @ 10 uM
1,COc1ccc(-c2nc3n(n2)C(=O)CC(c2cc(OC)c(OC)c(OC)c2)S3)cc1 (centres unmarked),3.66%
2,COc1ccc(N2CCN(C(=O)N[C@@H](CC(C)C)C(=O)NCC#N)CC2)cc1,-2.02%
3,Cc1ccc2[nH]c(C)c(CC(=O)O)c2c1,7.02%
4,Nc1[nH]nc2nc(N3CCCCC3)nc(-c3ccco3)c12,-5.67%
5,O=c1c(-c2ccccc2)c(O)cc(-c2cccnc2)n1-c1ccc(Cl)cc1,0.674%
6,COc1cc(SC)ccc1C(=O)Nc1ccc(Cl)cn1,-1.44%
7,CC1CC(=O)C2=C(C1)OC(N)=C(C#N)C2c1cccnc1 (centres unmarked),1.48%
8,CC1=CC(=O)C(C(C)C)=C/C1=N/OC(=O)c1ccccc1F,-2.14%
9,COC(=O)c1ccc(CSc2nnc(-c3ccncc3)n2Cc2ccccc2)o1,4.54%
10,CCc1c(C)nc2ccc(N)cc2c1Cl,10.8%
11,CC1=C(C(=O)Nc2ccc(Br)cn2)C(c2ccc(N(C)C)cc2)C2=C(O)CCCC2=N1 (centres unmarked),-0.305%
12,CC1(C)CC(=O)C2=C(C1)N(c1ccccc1)C1=C(C2)C(=O)CC(C)(C)C1,-9.68%
13,COc1ccccc1NCN1C(=O)C2CCC(C)CC2C1=O (centres unmarked),2.7%
14,Cc1ccc(-c2nn(CC(=O)N3CCN(Cc4ccccc4)CC3)c(=O)c3ccccc23)cc1,3.67%
15,O=C1C2CCCCC2C(=O)N1c1cc(Cl)ccc1O (centres unmarked),-2.34%
16,COc1ccc2oc(O)cc(=O)c2c1,-1.76%
17,CCOC(=O)c1cc2c(=O)n3ccccc3nc2n(CCOC)/c1=N/C(=O)c1cccnc1,-3.78%
18,COc1ccc(CN2CCN(C(=O)CN3C(=O)C4C5C=CC(C5)C4C3=O)CC2)c(OC)c1OC (centres unmarked),-2.9%
19,CCC(C)n1nc(O)c2c1NC(=O)CSC2c1ccccc1OC (centres unmarked),-0.45%
20,C=CCn1c(SCC(=O)Nc2ccc3c(c2)OCCO3)nc2sc3c(c2c1=O)CCC3,2.38%
21,CCN(CC)Cc1c(O)ccc2c(=O)c(-c3ccccc3Cl)coc12,0.727%
22,CNC(C)c1ccc(OC)cc1OC (centres unmarked),-0.216%
23,CCOc1ccc(C(=O)Nc2ccccc2-c2nc3ccccc3s2)cc1,-3.93%
24,Cc1sc(NC(=O)c2ccnn2C)c(C#N)c1-c1ccc(F)cc1,-1.98%
25,COC(=O)c1ccc(C2CC(=O)N3C(=C2C#N)SCC3(O)c2ccc(OC)c(OC)c2)cc1 (centres unmarked),7.77%
26,CN1CCc2c(c(S)sc(=N)c2C#N)C1,5.59%

row,SMILES,% Inhibition @ 10 uM
1,N#Cc1c(NC(=O)CCCCCN2C(=O)c3ccccc3C2=O)sc2c1CCC2,0.983%
2,CN1CCN(C2CCc3ccccc3C2)CC1 (centres unmarked),-7.35%
3,O=C(O)CN(Cc1ccccc1)S(=O)(=O)c1ccc(F)cc1,2.9%
4,Cc1cc(NC(=O)c2cc(-c3ccc4c(c3)OCO4)on2)n(-c2ccccc2)n1,0.0221%
5,CC(O)CN(Cc1ccc(Cl)c(Cl)c1)CC(C)O (centres unmarked),-0.603%
6,CCOC(=O)c1c(N)sc2c1CCCC2=O,-7.87%
7,CC(C)(C)C1CC(=O)CN(C(C)(C)C)C1 (centres unmarked),-2.91%
8,Cc1ccccc1S(=O)(=O)Cc1ccc(C(=O)N2CCC3(CC2)OCCO3)o1,2.14%
9,COc1ccc(Cl)cc1NC(=O)c1ccc(C)o1,1.59%
10,CC(C)C[C@H](NC(=O)OCc1cccc2[nH]ccc12)C(=O)NCC#N,1.71%
11,Cn1c(=O)c2c(nc3n(Cc4ccccn4)c(-c4ccc(F)cc4)cn23)n(C)c1=O,-10.2%
12,O=C(NCc1cccnc1)/C(=C/c1ccc(-c2ccc(Cl)cc2)o1)S(=O)(=O)c1ccccc1,2.17%
13,O=C(N/C(=C/c1cccnc1)C(=O)N1CCCCCC1)c1ccco1,3.79%
14,O=C(O)c1cc(Br)ccc1NS(=O)(=O)c1ccc(Cl)cc1,-11.3%
15,Cc1ccc(-c2nnc3n(Cc4ccccc4)c(=O)c4ccccc4n23)cc1,1.68%
16,CCSC1=C(C#N)C(=O)NCS1,-3.53%
17,CN(C)CCN(Cc1ccccc1)Cc1ccc(F)c(Br)c1,-5.11%
18,Oc1c(C(O)(C(F)(F)F)C(F)(F)F)cc(Cl)cc1C(O)(C(F)(F)F)C(F)(F)F,1.84%
19,Cc1ccc(S(=O)(=O)N2CCn3c(nc4ccccc43)C2)cc1,-5.47%
20,Oc1ccc(-c2csc(-c3c[nH]c4ccccc34)n2)c(O)c1,-4.62%
21,O=C(Nc1ccccc1C(=O)Nc1ccc(Cl)cc1)c1cccs1,1.96%
22,O=C(C1=C(O)C(=O)N(CCCn2ccnc2)C1c1ccc(Cl)cc1)c1ccc2c(c1)OCCO2 (centres unmarked),11.7%
23,C(=C\c1ccccc1)/CN1CCN(CC2CCCCC2)CC1,-1.78%
